# The full ranking holds about 33,000 sequences; the median of “E-score (-0.5 to 0.5)” is about -0.016, and the highest 2% start at about 0.32. Some of the results follow.
# Biological target: T1, Stp1 (UniProt B3LFK1)
# T1 sequence: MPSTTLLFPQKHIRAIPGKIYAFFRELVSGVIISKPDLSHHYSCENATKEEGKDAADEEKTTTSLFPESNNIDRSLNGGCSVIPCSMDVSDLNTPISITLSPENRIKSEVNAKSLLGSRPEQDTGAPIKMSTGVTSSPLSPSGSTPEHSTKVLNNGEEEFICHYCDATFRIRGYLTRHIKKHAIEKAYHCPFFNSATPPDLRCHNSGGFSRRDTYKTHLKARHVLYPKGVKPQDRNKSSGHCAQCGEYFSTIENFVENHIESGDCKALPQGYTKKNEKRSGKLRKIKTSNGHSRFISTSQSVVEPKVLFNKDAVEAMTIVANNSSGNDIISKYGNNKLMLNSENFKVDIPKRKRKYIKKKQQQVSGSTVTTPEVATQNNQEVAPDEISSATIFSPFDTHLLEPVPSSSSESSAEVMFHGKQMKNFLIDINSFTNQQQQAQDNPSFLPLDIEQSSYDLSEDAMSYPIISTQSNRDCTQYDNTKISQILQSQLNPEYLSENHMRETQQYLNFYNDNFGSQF
# Assay: PBM E-score (8-mer binding enrichment) (E-score (-0.5 to 0.5)); higher = stronger / more preferred TF binding; most listed sequences are background and not binding sites
# Conditions: protein concentration: 200 nM; construct: GST-full length
# Procedure, shortened: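 For each ungapped eight-base word taken together with its reverse complement, the Universal PBM Analysis Suite assigned an E-score. Binding data came from GST-tagged yeast transcription factors, applied at about 100-200 nM, on universal all-10-mer Agilent arrays made double-stranded by primer extension. Fluorescent anti-GST marked bound protein, and scans were normalised with masliner.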
row,Sequence,PBM E-score
1,CCGCGGAC,0.12
2,CCGTAAAA,0.246
3,GGGTAAAA,0.138
4,AGCAGCCT,-0.0925
5,AAATTTCG,0.12
6,AGTCAGTG,0.00226
7,AGGAAACC,0.0356
8,ACACGGGG,0.235
9,GACGGAAA,0.0786
10,CTTGCCCA,-0.0628
11,CTCCTCTA,-0.321
12,AAAGCTAC,-0.0607
13,CACCAACG,-0.0306
14,CTCTTACC,0.201
15,TCGTCTCA,-0.154
16,CAGCAAAA,-0.0372
17,CCCCCGCG,-0.0598
18,GCATTCGA,-0.0305
19,AATATGCA,0.00405
20,AATGAGCT,-0.164
21,ATCGCAAC,-0.0994
22,GGAAGTCC,-0.166
23,GATGTAGC,-0.123
24,ATCAGACC,-0.0398
25,CAGTTGGA,0.0531

row,Sequence,PBM E-score
1,GACTATCA,-0.0382
2,ATCAAAAC,0.102
3,CGTCGATA,0.105
4,CTGATTCA,-0.0077
5,TCTCACAA,0.0365
6,AAAGGCTC,0.104
7,ACCTCTTA,0.128
8,GCCTCATA,0.243
9,ACGAGGGC,0.0192
10,AGTAATCC,-0.0894
11,AGGGCGAG,-0.12
12,ATGTTAAA,0.221
13,CATTGCCC,0.0291
14,ACGGATGG,0.14
15,GAAGAGTC,-0.219
16,CCCTGATA,-0.202
17,ACGATCTA,-0.1
18,CTGGACCC,-0.266
19,GATCGCAC,-0.0631
20,ACTCAAGC,-0.105
21,CGGTAAAG,0.0549
22,GACAGCAA,0.193
23,ACTGGTCG,-0.0623
24,CGACCACC,-0.106
25,ATAATAGA,0.035

row,Sequence,PBM E-score
1,GATGTTTA,-0.0105
2,CGTGCACG,0.221
3,CTACCACC,-0.296
4,GTGACCCA,-0.011
5,ATCCGCGG,0.13
6,CCACCACC,-0.144
7,AATTGAAT,0.0857
8,AGTGTTCG,-0.0382
9,AATAACGA,0.0307
10,CGATACCC,-0.161
11,CATACATA,0.193
12,AATCGAGT,-0.048
13,AAGGTCCT,-0.234
14,AGACAGGC,-0.0258
15,ATACACGA,-0.0471
16,GGCGTGGA,-0.0299
17,ACAGATCA,-0.122
18,CACTCTCA,0.0406
19,GAAATTAA,0.242
20,CACATAGA,0.0469
21,ATTTATCC,0.27
22,AGAACCCG,-0.227
23,TAAAATTA,0.153
24,CCTTACGA,0.109
25,ATCTCTAA,0.0233

row,Sequence,PBM E-score
1,TCATAACA,0.25
2,ACGGCCAA,0.278
3,CGTCTCGC,0.0123
4,AGCAACTC,-0.00471
5,AATCTGAA,0.146
6,CAAGCAGG,-0.148
7,CACAGACC,-0.0852
8,GCATCAGC,-0.0129
9,TAGCATCA,-0.0364
10,TCCCAAAA,0.164
11,AATCTAGC,-0.0235
12,CTCCGTTC,0.072
13,GCATTTTA,0.195
14,TATGAAGA,0.17
15,AGATGTGA,0.204
16,AAGCAATT,0.177
17,GAATGATA,0.196
18,AAAACTCA,0.0761
19,CATCGACC,0.076
20,CGTGTGAG,0.0462
21,GCTGTTAA,0.0804
22,CAGTGACG,-0.105
23,ACGCGTTG,0.0971
24,ACAGCTAT,-0.22
25,CCGTCCTA,0.0389

row,Sequence,PBM E-score
1,ACGCTGAC,-0.131
2,GCCTAAAA,-0.0419
3,CCTGCGCA,-0.204
4,GTACCAAC,-0.0004
5,ATCGAAAC,0.152
6,CAGGCCCA,-0.178
7,CCAGTTCG,-0.039
8,AGGAATCC,-0.00808
9,ATCGGGTA,-0.19
10,TACATCGA,0.0474
11,CTTACGCC,0.189
12,ACTCCTTG,-0.164
13,ACGCTACC,-0.239
14,AAATACGA,0.0656
15,GAGGTTAA,-0.21
16,GCCAACCC,-0.176
17,AGAGGCCC,-0.273
18,ATTTTATC,0.182
19,AGCGATTC,-0.194
20,ATCGTGAC,0.0453
21,ATTCTCGA,0.101
22,GCTTAGTA,0.0302
23,CAATTACC,-0.00841
24,CTGCTACC,-0.0964
25,CCATAGTA,-0.13

row,Sequence,PBM E-score
1,AGTGAACG,-0.0702
2,CGCCGGAG,-0.0423
3,AACTAAAC,0.148
4,CTTTCGCA,0.108
5,ATCTAAAT,0.191
6,CTTCGGTC,0.0236
7,GCAAAAGC,0.148
8,CGGTCGTA,-0.215
9,ACGAGGCA,0.37
10,CAAGGTAG,-0.194
11,GGGGTCCA,-0.323
12,CACGAGGC,0.415
13,CGGCAAAA,0.357
14,CAGGAGGC,0.108
15,GCCATCGA,0.0584
16,CAAACCCG,0.0896
17,AGTTAGCC,0.0147
18,CTGGCCAC,-0.187
19,ACCTGTCC,-0.219
20,GATCTATA,0.0822
21,ACGGCCGA,0.191
22,CAGCGTCG,-0.0613
23,CCAGAGCC,0.138
24,CGCTTCTC,0.0513
25,GACTAATA,0.0804

row,Sequence,PBM E-score
1,ATGTAAGG,-0.00384
2,ACGGATAG,0.107
3,GGAACTGA,-0.0156
4,AGAATGCC,0.262
5,CGCTTTAG,-0.0241
6,GTTGTTGA,0.0717
7,GATTTGTA,0.114
8,TAGAAATA,0.0228
9,TGGTCGAA,-0.295
10,AGTGAACA,-0.135
11,GCCGGAGC,-0.0765
12,CCCATTCG,-0.0463
13,CCACTATA,-0.00593
14,GTTTCCGA,0.0394
15,GCAGGACC,-0.315
16,GAAATGAC,0.0359
17,AATATGCG,0.114
18,AATTTTGC,0.109
19,AAGCCCTG,0.0325
20,CCTATTAG,0.0669
21,CCCCATAA,-0.137
22,CCATATGC,0.101
